These results are taken from PMC4537477 (Protein & Cell, 2015).

For the assay, the target named is full-length human histone H4 (human, UniProt P62805). The experiment in a line: crystal structure; 3.5-Å structure of the MCM2-ASF1-H3-H4 quaternary complex, solved by molecular replacement; six tetramers in one asymmetric unit. The conditions noted are these: both partners purified.

B1: N-terminal domain of human MCM2 ([…]) (domain or fragment)
chain: not shown
Take B1: the binding result is on record as “binds”.
